{"source": "paper PMC7819943", "about": "“Rice protein-binding microarrays: a tool to detect cis-acting elements near promoter regions in rice”", "note": "The other results are listed elsewhere or left out.", "data": [{"molecular_target": "T1, OsWOX13 (Oryza sativa, UniProt Q5QMM3 1-267)", "T1 sequence": "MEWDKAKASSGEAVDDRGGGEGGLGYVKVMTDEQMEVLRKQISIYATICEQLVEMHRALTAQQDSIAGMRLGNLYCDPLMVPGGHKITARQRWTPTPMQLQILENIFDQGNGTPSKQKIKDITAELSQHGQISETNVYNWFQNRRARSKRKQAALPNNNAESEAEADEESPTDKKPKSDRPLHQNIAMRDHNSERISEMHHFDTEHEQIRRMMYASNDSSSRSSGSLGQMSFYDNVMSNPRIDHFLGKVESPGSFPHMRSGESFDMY", "assay": "protein-binding microarray (RPBM); PBS, 2% BSA, 51.3 ng/ul salmon testes DNA, 50 uM zinc acetate, 200 nM TF, 25 C, 1 h; high values mean tight binding", "conditions": "protein: recombinant; tags: N-terminal polyhistidine and DsRed monomer fusion (pET32a); label: CyDye5-dUTP incorporated in the synthesized complementary strand; 3' TTTTT single-stranded linker to array surface; dsDNA, one strand shown", "in_short": "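Binding signal is reported as fluorescence intensity per feature (arbitrary units) from an Axon 4000B scanner. Incubation used 200 nM of each Ni–NTA-purified, N-terminally polyhistidine- and DsRed-fused transcription factor from E. coli BL21-CodonPlus on a double-stranded custom Agilent array for 1 h at 25 °C, with 50 µM zinc acetate in the buffer, followed by washing.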", "values": [{"sequence": "ATTTATTGAGAATAAATTGCTCTATTACAACTTGCAAACTCGGAGTCACCTAGTGCAG", "binding signal": "12300 fluorescence intensity (a.u.)"}, {"sequence": "ATACATGATTACACGAATTGAAGGATATGCGTGCTCACTGCGGAGTCACCTAGTGCAG", "binding signal": "24800 fluorescence intensity (a.u.)"}, {"sequence": "GTACAGTTTAGAACAATCAATAACGATGCGATATGTACCACGGAGTCACCTAGTGCAG", "binding signal": "3220 fluorescence intensity (a.u.)"}, {"sequence": "AACTAAGTTAAATGCACCAATTAATTATAGACCATGTCACCGGAGTCACCTAGTGCAG", "binding signal": "6140 fluorescence intensity (a.u.)"}, {"sequence": "GAGATTGGTATGGTCCCTCAATAAAATGGTGCCATCAAGCCGGAGTCACCTAGTGCAG", "binding signal": "3650 fluorescence intensity (a.u.)"}, {"sequence": "CTCCAGTCATTAACTAGTTGTAAATGGAATAGTATTAGTACGGAGTCACCTAGTGCAG", "binding signal": "8900 fluorescence intensity (a.u.)"}, {"sequence": "AAGATGTGTCAATTAATTATTTGCCACTCGTTATCTATGACGGAGTCACCTAGTGCAG", "binding signal": "13400 fluorescence intensity (a.u.)"}, {"sequence": "TGTAACGCTATCACAAAATAAATTAGATATGTGAAGCTGGCGGAGTCACCTAGTGCAG", "binding signal": "8750 fluorescence intensity (a.u.)"}, {"sequence": "ATGTAATTTCTATTCATAGAAAAGCATGGGTACTCAGCTACGGAGTCACCTAGTGCAG", "binding signal": "9070 fluorescence intensity (a.u.)"}, {"sequence": "ATCTAGACGTATAAATTTGTGTGGAATTTTGTACAACTCACGGAGTCACCTAGTGCAG", "binding signal": "3350 fluorescence intensity (a.u.)"}, {"sequence": "TCAATAAATGTAAATTTATTTGTATAATCAGCTGCCAGTACGGAGTCACCTAGTGCAG", "binding signal": "16800 fluorescence intensity (a.u.)"}, {"sequence": "GAAATACTTACAATGATAGATTTCACTATCCCTATCACTGCGGAGTCACCTAGTGCAG", "binding signal": "3750 fluorescence intensity (a.u.)"}, {"sequence": "TTCTATTATTGATTTTGGCCGACCGAACAAAGATAGTTTCCGGAGTCACCTAGTGCAG", "binding signal": "9880 fluorescence intensity (a.u.)"}, {"sequence": "ACTTAATTATCCTAGAGGTGGAAAAGAAAAGACTTTTGAGCGGAGTCACCTAGTGCAG", "binding signal": "24500 fluorescence intensity (a.u.)"}, {"sequence": "GGCTGGTTTGATTGACCATGTGCCGTTCATAGGAGTAGTCCGGAGTCACCTAGTGCAG", "binding signal": "33400 fluorescence intensity (a.u.)"}, {"sequence": "ACAGTTGACTGCACCGTGTCATTGTCACTAACATGTGGACCGGAGTCACCTAGTGCAG", "binding signal": "8180 fluorescence intensity (a.u.)"}, {"sequence": "GGAGTAAATACAAATTTAATTTACAACTTTTCTCAATTTACGGAGTCACCTAGTGCAG", "binding signal": "6430 fluorescence intensity (a.u.)"}, {"sequence": "ATAGTAATTATAATGACACAAAGGTCAATTAATCAATTAACGGAGTCACCTAGTGCAG", "binding signal": "17100 fluorescence intensity (a.u.)"}, {"sequence": "CTGAATTGATCGACAAGTCCACAGGGTAAGTACTTCTGTTCGGAGTCACCTAGTGCAG", "binding signal": "20000 fluorescence intensity (a.u.)"}, {"sequence": "AGTGAGTAATTAATGCCCTGAAGTTCCTTCTTATTTCTAACGGAGTCACCTAGTGCAG", "binding signal": "3500 fluorescence intensity (a.u.)"}, {"sequence": "TATTAATATATTAATTAATCAAAACCCTTTCCTTCTTTCACGGAGTCACCTAGTGCAG", "binding signal": "13600 fluorescence intensity (a.u.)"}, {"sequence": "CGCTTGTACTGATTTGGTTTTGGTTGCTGGGTTGGATGGTCGGAGTCACCTAGTGCAG", "binding signal": "5960 fluorescence intensity (a.u.)"}, {"sequence": "ACTAAATTGACTTATTAGGTGTTGTCACAGTTTACTTGACCGGAGTCACCTAGTGCAG", "binding signal": "46000 fluorescence intensity (a.u.)"}, {"sequence": "CACTGGGATTGGTTGGTCTGGTCAGCAAGCAGAGCACCGCCGGAGTCACCTAGTGCAG", "binding signal": "9500 fluorescence intensity (a.u.)"}, {"sequence": "CCCCTACAGCAGGCAATTAAGATTGAATTGCATACATTAACGGAGTCACCTAGTGCAG", "binding signal": "3610 fluorescence intensity (a.u.)"}, {"sequence": "CAAATTTAATTAGTAGTAGAAGATATATTGTCTTCTAGCTCGGAGTCACCTAGTGCAG", "binding signal": "35000 fluorescence intensity (a.u.)"}, {"sequence": "AAGTAATTATTAATTCTTTTCGTATCATTTGGTTCATTGTCGGAGTCACCTAGTGCAG", "binding signal": "29800 fluorescence intensity (a.u.)"}, {"sequence": "TGTAATGATTTTCACTGAGCTGAAGGATATTAATTTGCATCGGAGTCACCTAGTGCAG", "binding signal": "18200 fluorescence intensity (a.u.)"}, {"sequence": "TACTAAATGTACAATTTGCAGGTCAATGAACGCTGCACATCGGAGTCACCTAGTGCAG", "binding signal": "3610 fluorescence intensity (a.u.)"}, {"sequence": "AACTCAATCATGCGATTAGTTAATTATTGGCAAATATATACGGAGTCACCTAGTGCAG", "binding signal": "17500 fluorescence intensity (a.u.)"}, {"sequence": "ATGATTTTGATTTTGTGCTCTGCTCTGCCTTTTGCTCCTACGGAGTCACCTAGTGCAG", "binding signal": "16400 fluorescence intensity (a.u.)"}, {"sequence": "CAAATCATGGCGCAATTAGGCTTAAAAGATTCGTCTCACACGGAGTCACCTAGTGCAG", "binding signal": "4730 fluorescence intensity (a.u.)"}, {"sequence": "GAATAATTGCTCTTGTGCTAAGAAAATATATTTTATCCTTCGGAGTCACCTAGTGCAG", "binding signal": "11300 fluorescence intensity (a.u.)"}, {"sequence": "TCCGTATAATTCCGATTAATTGTCCATATTCTAATTAATTCGGAGTCACCTAGTGCAG", "binding signal": "15700 fluorescence intensity (a.u.)"}, {"sequence": "TGCTGAGAAATTAATTGAAACATTATGACAGTTATAGTTACGGAGTCACCTAGTGCAG", "binding signal": "13700 fluorescence intensity (a.u.)"}, {"sequence": "ATTTTGATTGGTTGAGAACTGAGCGGCCCTGTAGGCTTTCCGGAGTCACCTAGTGCAG", "binding signal": "41000 fluorescence intensity (a.u.)"}, {"sequence": "TAGTAATTTATTTAGGAAAGCAACCGACTTATGGCGAAGACGGAGTCACCTAGTGCAG", "binding signal": "3420 fluorescence intensity (a.u.)"}, {"sequence": "CTTTCTTAATTGCTACTTCCTAGTTGTCTGCCTTTCTTCTCGGAGTCACCTAGTGCAG", "binding signal": "28800 fluorescence intensity (a.u.)"}, {"sequence": "CACATGTGATTGACAAATCCTAAATTACGAGTGGCAAAATCGGAGTCACCTAGTGCAG", "binding signal": "31500 fluorescence intensity (a.u.)"}, {"sequence": "CCTAATTACTCCATGATTTGATAATATGACGCTACAGTAACGGAGTCACCTAGTGCAG", "binding signal": "25000 fluorescence intensity (a.u.)"}, {"sequence": "GACAGTAATTAGTAATATTACCAAGGTTCACAATCCCGTTCGGAGTCACCTAGTGCAG", "binding signal": "24500 fluorescence intensity (a.u.)"}, {"sequence": "AGCCTTTTGATCAATTTACTTCCTCCTCCTTCTCCTTTATCGGAGTCACCTAGTGCAG", "binding signal": "16100 fluorescence intensity (a.u.)"}]}]}
